# In publication PMC4336329 (PLoS ONE, 2015):
# The campaign covered roughly 310,000 compounds. About 14,000 (4.5%) showed an effect of 50% or more. Effects have a minus sign here. The list shows a part of the results.
# Target: human ether-à-go-go-related gene (hERG) potassium channel (human, UniProt Q12809)
# Test: primary screen, population patch clamp on CHO cells stably expressing hERG
# 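Further: peak tail current of the secondary pulse compared with the same well before compound.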
# human ether-à-go-go-related gene (hERG) potassium channel, sequence (Q12809 whole entry, looked up): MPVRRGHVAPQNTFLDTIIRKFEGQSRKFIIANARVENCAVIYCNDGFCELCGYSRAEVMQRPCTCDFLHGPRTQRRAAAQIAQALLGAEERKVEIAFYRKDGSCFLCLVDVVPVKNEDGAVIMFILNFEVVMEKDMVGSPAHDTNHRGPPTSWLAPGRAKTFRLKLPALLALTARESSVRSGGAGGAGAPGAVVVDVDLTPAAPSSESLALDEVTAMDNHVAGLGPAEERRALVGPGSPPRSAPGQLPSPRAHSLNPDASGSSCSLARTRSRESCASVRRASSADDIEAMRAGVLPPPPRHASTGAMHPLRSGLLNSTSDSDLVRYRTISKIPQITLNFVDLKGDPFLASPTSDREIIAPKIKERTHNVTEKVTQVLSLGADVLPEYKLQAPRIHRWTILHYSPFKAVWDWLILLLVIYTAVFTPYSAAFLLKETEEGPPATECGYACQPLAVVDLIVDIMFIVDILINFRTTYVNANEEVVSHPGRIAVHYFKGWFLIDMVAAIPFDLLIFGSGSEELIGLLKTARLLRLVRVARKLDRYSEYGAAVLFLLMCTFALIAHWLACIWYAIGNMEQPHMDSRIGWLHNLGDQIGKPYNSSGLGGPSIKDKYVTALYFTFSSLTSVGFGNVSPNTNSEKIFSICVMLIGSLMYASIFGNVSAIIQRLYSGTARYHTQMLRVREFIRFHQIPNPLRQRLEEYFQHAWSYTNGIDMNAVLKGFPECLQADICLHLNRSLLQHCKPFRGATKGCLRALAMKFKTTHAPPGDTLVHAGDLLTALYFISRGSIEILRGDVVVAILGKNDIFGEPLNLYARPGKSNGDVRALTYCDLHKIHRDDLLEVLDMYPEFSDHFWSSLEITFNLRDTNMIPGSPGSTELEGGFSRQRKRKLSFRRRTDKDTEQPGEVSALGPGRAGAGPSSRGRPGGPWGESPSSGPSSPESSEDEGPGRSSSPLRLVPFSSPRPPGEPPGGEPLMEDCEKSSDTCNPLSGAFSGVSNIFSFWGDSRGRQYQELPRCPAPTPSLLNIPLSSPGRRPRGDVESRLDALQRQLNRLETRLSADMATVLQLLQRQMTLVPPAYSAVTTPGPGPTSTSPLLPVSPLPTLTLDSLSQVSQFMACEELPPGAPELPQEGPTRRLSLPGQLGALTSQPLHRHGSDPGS
row,SMILES,"hERG current change (%, negative = inhibition) at 10uM"
1,COc1cccc(/C=C2/SC(=S)N(CCCC(=O)Nc3ccc(O)cc3)C2=O)c1,7.8%
2,O=C(NNS(=O)(=O)c1ccccc1[N+](=O)[O-])c1ccc(F)cc1,16.3%
3,CN(C)CCCN(C(=O)c1ccc(S(=O)(=O)N(C)Cc2ccccc2)cc1)c1nc2c(F)cccc2s1.Cl,-38.2%
4,Cc1cc(C)nc(NC(=NCCc2c[nH]c3ccccc23)NC(=O)Nc2ccc(Cl)cc2)n1,9.33%
5,S=c1[nH]nc(Cc2cccs2)n1-c1cccc2ccccc12,-10.4%
6,c1ccc(-c2nnsc2-c2ccccc2)cc1,-3.66%
7,Oc1c(CN2CCCCC2)cc(Br)c2cccnc12,0.599%
8,CSc1ccc(/C=C/C(=O)c2ccc(NC(C)=O)cc2)cc1,12.6%
9,Cc1ccc2nc(NCCCO)[nH]c2c1,10%
10,Cc1ccc(S(=O)(=O)N2CCOCC2)cc1C(=O)NC1CCCC1,19.8%
11,O=C(N/N=C/c1cccc(Br)c1)c1ccc(Cn2cc(Br)cn2)o1,-40.9%
12,CNC[C@@H](C)NC[C@@H](Cc1ccccc1)NCCc1ccccc1,-19.7%
13,COc1ccc(C2=NOC(C(=O)NC3CCCCC3)C2)cc1OC (stereo not drawn),-16.8%
14,O=C(Nc1cccc(S(=O)(=O)NCc2ccco2)c1)c1cc(-c2ccc(F)cc2)nc2ccccc12,3.15%
15,Cc1cccn2c(=O)c3cc(C(=O)NC4CCCC4)c(=N)n(CCc4ccccc4)c3nc12,-74.5%
16,C/C(=N\NC(=O)c1ccco1)c1ccc(C(=O)O)s1,-3.03%
17,COCCN(C(=O)COC(=O)C1CCC(C(C)(C)C)CC1)c1c(N)n(Cc2ccccc2)c(=O)[nH]c1=O (stereo not drawn),-2.61%
18,COc1ccc(S(=O)(=O)Cc2ccc(C(=O)N3CCN(C4CCCCC4)CC3)o2)cc1,-32.7%
19,Cc1ccc(C)c2[nH]c(=O)c(CN(CCN3CCCC3)C(=O)Nc3cccc(Cl)c3)cc12,-74.1%
20,COc1ccc(S(=O)(=O)N2CCOCC2)cc1NC(=O)CCNC(=O)c1ccc(Br)cc1,-16.8%
21,O=C(COc1ccc2c3c(c(=O)oc2c1)CCCC3)NCCCn1ccnc1,-17.3%
22,CCOC(=O)c1c(SCC(=O)Nc2nccs2)nc(C)c(C)c1C,23.7%
23,CCCS(=O)(=O)c1nc(S(=O)(=O)c2ccc(C)cc2)c(N2CCc3ccccc3C2)s1,5.34%
24,Cc1cc(C)cc(OCC(=O)OC(C)C(=O)Nc2ccc(Cl)cn2)c1 (stereo not drawn),5.07%
25,NC(=O)c1sc2nc3c(c(-c4ccc(Cl)cc4)c2c1N)CCCC3,12.1%
26,COCc1ccc(C(=O)N2CCCC(CCC(=O)NCc3ccccc3F)C2)o1 (stereo not drawn),-2.18%
27,CCCCCCn1c(CN2CCN(C(=O)OCC)CC2)nc2c1c(=O)n(C)c(=O)n2C,-53.5%

row,SMILES,"hERG current change (%, negative = inhibition) at 10uM"
1,O=C(CCC(=O)c1cccs1)NC(c1ccccc1)c1ccccc1,6.3%
2,CSc1nsc(N/N=C/c2ccc3c(c2)OCO3)c1C#N,12.9%
3,COc1ccc(/C=N/n2c(C)nnc2C)c(OC)c1OC,21.5%
4,O=C(NCCCN1CCOCC1)C(Sc1ccccc1)c1ccccc1 (stereo not drawn),-12.5%
5,CCOC(=O)N1CCN(Cc2c(F)cccc2Cl)CC1,-2.03%
6,CC(C)CN(C(=O)c1cccc(Cl)c1)c1c(N)n(Cc2ccccc2)c(=O)[nH]c1=O,13.6%
7,CC(C)C[C@H](NC(=O)c1nc[nH]c1C(=O)NCCCCCNC(=O)OC(C)(C)C)C(=O)OC(C)(C)C,5.12%
8,Cc1cc(C)nc(SCCCNCc2ccccc2)n1.Cl,-3.19%
9,CC(C)(C)NCC(O)COc1cccc2c1CC(O)C(O)C2 (stereo not drawn),2.6%
10,Clc1cccc(OCCN2CCN(CCOc3cccc(Cl)c3)CC2)c1,-70.8%
11,COc1ccc(-n2cnnc2SCc2csc(-c3ccccc3)n2)cc1,-36.7%
12,CCOC(=O)c1cn(-c2ccccc2)nc1-c1cccnc1,-37.3%
13,O=C(/C=C/c1ccccc1)NCCN1CCOCC1,20.6%
14,CSc1nc2c(cc1C#N)CCC2,8.13%
15,COc1ccc(C(=O)NCc2cccnc2)cc1OC,7.23%
16,CCOc1ccccc1N(C(=O)c1snc(C(N)=O)c1N)C(C(=O)NCC1CCCO1)c1ccc2ncccc2c1 (stereo not drawn),12.6%
17,Cc1ccc(CNC(=O)C(NS(=O)(=O)c2cccs2)C(C)C)cc1 (stereo not drawn),2.56%
18,CCN(CC(=O)NCc1cccs1)C(=O)c1ccc([N+](=O)[O-])o1,-33.8%
19,COC(=O)[C@]1(CC(C)C)N[C@H](c2ccc(-c3ccc(F)cc3)cc2)[C@@H]2C(=O)N(C)C(=O)[C@@H]21.O=C(O)C(F)(F)F,-15.7%
20,CC(C)CN(CC(C)C)C(=S)NC1CCCCC1,9.09%
21,Cc1cc(C)cc(Oc2nn[nH]n2)c1,22.2%
22,COc1ccc([C@@H]2CC=C(C(=O)O)[C@H](c3ccc(F)cc3)N2S(=O)(=O)c2ccc(C)cc2)cc1OC,10.5%
23,NC(=O)c1ccsc1NC(=O)c1nc(-c2ccccc2)n(-c2ccccc2)n1,8.47%
24,O=C(COC(=O)CCS(=O)(=O)c1ccccc1)Nc1cc(S(=O)(=O)N2CCCCC2)ccc1Cl,-4.61%
25,Cc1ccc(S(=O)(=O)c2c(N)n(C)c3nc4ccccc4nc23)cc1,-5.92%
26,CCC(C)Nc1nc(N)c([N+](=O)[O-])c(NC2CCCCC2)n1 (stereo not drawn),35.1%
27,CCC(C)[C@H]1CNC(=O)C(=O)N1CCCc1cc(OC)c(OC)c(OC)c1 (stereo partly drawn),9.16%
